Test results reported in patent US20230016112A1 (IBIO, published 2023).

T1: full-length CD25 (human, UniProt P01589 22-186, limits assumed)
T1 construct: The assays used soluble 'full-length CD25'; also called Hu CD25; IL-2 receptor alpha chain
T1 chain: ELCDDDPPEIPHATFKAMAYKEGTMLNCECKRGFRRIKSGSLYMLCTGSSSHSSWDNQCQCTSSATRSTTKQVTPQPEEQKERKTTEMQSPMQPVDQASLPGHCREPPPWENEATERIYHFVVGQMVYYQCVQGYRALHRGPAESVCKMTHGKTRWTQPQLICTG


Target: T1, full-length CD25
Experiment: Octet biolayer interferometry, human IgG1 against CD25

Kd [nM] | Binder
44.3 | YU394-D08 (antibody, Tested as full-length human IgG1) scFv: QVQLGESGAEVKKPGSSVKVSCKASGGTFSSYAISWVRQAPGQGLEWMGWISAYNGNTNYAQKLQGRVTMTTDTSTSTAYMELRSLRSDDTAVYYCAREPLRYYYYYGMDVWGQGTTVTVSS[letters of about 100 residues not shown]
142 | YU389-B11 (antibody, Tested as full-length human IgG1) scFv: PGSSVKVSCKASGGTFSSYAISWVRQAPGQGLEWMGGIIPIFGTANYAQKFQGRVTITADESTSTAYMELSSLRSEDTAVYYCAREMYYYYGMDVWGQGTTVTVSS[letters of about 100 residues not shown]FGQGTKLEIK
45.8 | YU391-B12 (antibody, Tested as full-length human IgG1) scFv: QMQLVQSGAEVKKPGSSVKVSCKASGGTFSSYAISWVRQAPGQGLEWMGGIIPIFGTANYAQKFQGRVTITADESTSTAYMELSSLRSEDTAVYYCAREMYYYYGMDVWGQGTTVTVSS[letters of about 100 residues not shown]
